# Some of the results follow.
# System: T1, C. trachomatis L2/434/Bu expressing GFP (CTL2-GFP)
# T1 construct: L2/434/Bu GFP intracellular growth in HeLa cells
# Set-up: species or system HeLa; C. trachomatis total inclusion area by high-content imaging, normalised to DMSO
# Conditions: total inclusion area; 28.5 h, 10 µM; inhibitor
# How it was run: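 High-content imaging followed the bulk GFP/resorufin measurement: fixed, Hoechst-stained cells were scored for GFP inclusions and host nuclei per well. Total inclusion area and count served as growth proxies, nuclei number as the viability proxy. MIC calculation matched the bulk assay.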
row,SMILES,% of control remaining
1,CC(C)(C)c1[nH]c2ncccc2c1CN1CCSCC1 [CBK285340],113.516
2,COc1ccc2cc(/C=C(\C#N)c3nc(-c4cc5ccccc5oc4=O)cs3)c(Cl)nc2c1 [CBK261623],95.8533
3,O=C(c1c(F)cccc1F)N1C2CCC1c1snnc1C2 (stereo not shown) [CBK284990],101.728
4,O=C(NCCc1c[nH]c2ccc(F)cc12)Nc1ccccc1 [CBK269964],87.6357
5,O=S(=O)(c1ccc(I)cc1)n1ccc2c(N3CCNCC3)cncc21 [CBK081326C],82.712
6,CCOC(=O)N1CCC(NS(=O)(=O)Cc2ccccc2)CC1 [CBK045457],104.415
7,Cn1c(=O)n(C)c2cc(CNCc3ccccn3)ccc21 [CBK288118],80.5106
8,COc1ccc(CC(=O)N2CC[C@H]3NC(=O)N(c4ccccc4)C(=O)[C@H]32)cc1 [CBK289278],126.919
9,O=C(C(Cc1ccccc1)N1C(=O)C2CCCCC2C1=O)N1CCN(Cc2ccc3c(c2)OCO3)CC1 (stereo not shown) [CBK264648],111.395
10,N#CC1(NC(=O)CN2CCOC(Cn3cccn3)C2)CCCC1 (stereo not shown) [CBK304911],112.162
11,FC(F)(F)c1cc(/C=C/c2cccs2)n[nH]1 [CBK020924],77.2593
12,CC(C)[C@@H](CO)Nc1nccnc1-c1cccs1 [CBK089024],105.371
13,CC(=O)NC(CSc1cc(C)nc2ccccc12)C(=O)O (stereo not shown) [CBK286755],50.3263
14,Clc1ccc(CN2CCN(c3nccnc3OCCN3CCOCC3)CC2)cc1Cl [CBK082884T],87.1326
15,COc1n[nH]c(CO)c1Cc1c(Cl)cccc1Cl [CBK092283T],100.908
16,CSc1nnc(N(C)S(=O)(=O)c2ccc(C)cc2)s1 [CBK155272],91.0426
17,Fc1ccc(N2CCN(Cc3cccc(OCc4ccccc4)c3)CC2)cc1 [CBK261916],90.9959
18,N#Cc1ccccc1N1CCN(c2cncc(-c3ccc(CO)cc3)n2)CC1 [CBK037383],64.7371
19,CC1CCCC(C)N1CC(O)COCc1ccc2c(c1)OCO2 (stereo not shown) [CBK263134C],95.6633
20,COc1ccc(NC(=O)c2sc(Cl)nc2C)cc1 [CBK057902],68.3516
21,O=C(CCN1CCN(Cc2ccccc2)CC1)Nc1ccc(F)cc1 [CBK264261],63.3042

row,SMILES,% of control remaining
1,CO[C@@H](C(=O)Nc1cnc(-c2cccc(C)c2)c(-c2ccco2)n1)c1ccccc1 [CBK037613],88.4037
2,CC(C)C(CNCc1ccsc1)c1ccnn1C (stereo not shown) [CBK304821],98.7211
3,OC1(C2CNc3ccccc3C2)CCNCC1 (stereo not shown) [CBK283847],69.9592
4,CCOC(=O)C1CCN(C(=O)Cn2cnc3ccc(Br)cc3c2=O)CC1 [CBK306070],76.011
5,CCn1cc(CN2CCCN(C(=O)c3cccn(C)c3=O)CC2)cn1 [CBK305375],44.1196
6,COc1ccc([N+](=O)[O-])cc1NC(=O)c1cc(Cl)c(OC)c(Cl)c1 [CBK268594],98.4774
7,COc1ccc(Cc2nnc(Nc3ccc(OC)cc3)[nH]c2=O)cc1 [CBK287385],91.4917
8,CNCCOc1ccccc1O [CBK023215C],92.6903
9,CN(CC1(C)COC1)C(=O)CCc1nc2ccccc2[nH]1 [CBK281719],80.6564
10,O=C(O)CC(C(=O)O)N1C(=O)/C(=C\C(Cl)=C/c2ccc([N+](=O)[O-])cc2)SC1=S (stereo not shown) [CBK261013],105.732
11,O=C(CN1CCCC(c2cccc(Cc3ccc(F)cc3)n2)C1)Nc1nccs1 (stereo not shown) [CBK286503],76.5049
12,OCCN1CC2(CCN(CCC(c3ccccc3)c3ccccc3)CC2)c2ccccc21 [CBK126765],88.7197
13,CCOC(=O)c1cnc2ccc(Cl)cc2c1N1CCOCC1 [CBK307627],95.7036
14,O=C(O)Cc1ccc(NS(=O)(=O)c2ccc(F)cc2)cc1 [CBK269981],86.3579
15,O=C(O)COc1ccccc1/C=C/c1cc(C(F)(F)F)[nH]c(=O)n1 [CBK287017],83.5771
16,Clc1cc(NCCc2c[nH]c3ccccc23)n2nccc2n1 [CBK037218],63.6347
17,Cc1cnc(CNC(=O)N2CCN(c3ccc(F)cc3)CC2)cn1 [CBK156392],108.255
18,O=C(NCC1CCCO1)C1CCCN(C(=O)c2cc(-c3ccccn3)[nH]n2)C1 (stereo not shown) [CBK210893],102.329
19,Nc1ncnc2[nH]c(SCc3nc4ccccc4n3Cc3ccccc3)nc12 [CBK264148],78.791
20,S=C(NCCN1CCCCC1)NCC1CCCO1 (stereo not shown) [CBK268129],82.2572
21,Cc1c(C(=O)N2CCOCC2)sc2nc(-c3ccc(Cl)cc3)nn12 [CBK010863],85.4642

row,SMILES,% of control remaining
1,CC1CCCN(c2ccc(NS(=O)(=O)c3ccc4[nH]c(=O)[nH]c(=O)c4c3)cc2)C1 (stereo not shown) [CBK286376],109.371
2,Cn1cccc1C(=O)Nc1ccccc1N1CCNCC1 [CBK029450T],93.4003
3,O=C(Nc1ccc2[nH]ccc2c1)c1ccc(Br)cc1Cl [CBK159679],65.9211
4,CN(C)Cc1ccccc1-n1cc(-c2cccnc2)nn1 [CBK113064],97.2151
5,Cc1ccccc1OCC(=O)Oc1ccc(-c2cnc3ccccc3n2)cc1 [CBK264703],105.114
6,O=C(O)Cc1nn(Cc2ccccc2)c(=O)c2ccccc12 [CBK262315],69.5716
7,Cc1c(C(=O)Nc2ccc(S(=O)(=O)NCC3CCCO3)cc2)cccc1[N+](=O)[O-] (stereo not shown) [CBK267533],100.983
8,O=C(Cn1cccn1)NC(Cc1ccsc1)c1nccs1 (stereo not shown) [CBK284666],47.8497
9,O=C(Nc1ccc(C(=O)N2CCOCC2)cc1)c1cc(-c2cccnc2)nc2ccc(Cl)cc12 [CBK267725],102.059
10,O=C(C1CCCCC1)N1CCC(c2n[nH]c3ncccc23)CC1 [CBK284905],103.316
11,Cc1cc(O)ccc1Nc1cc(-c2ccc3c(c2)OCO3)ncn1 [CBK091053],149.101
12,O=C(Nc1ccc(NC(=O)C2CC=CCC2C(=O)O)cc1Cl)C1CCCCC1 (stereo not shown) [CBK268772],82.7991
13,O=C(c1ccc(Nc2ccnc3cc(C(F)(F)F)ccc23)cc1)N1CCC(O)(c2cccc(C(F)(F)F)c2)CC1 [CBK012467],107.716
14,O=S(=O)(Nc1ccc(-c2nnn[nH]2)cc1)c1cc(Cl)c(Cl)s1 [CBK154745],80.1142
15,COc1ccc(CN2CCN(Cc3cc(Br)ccc3O)CC2)cc1OC [CBK263632],80.8412
16,CC(=O)Oc1c(C)cc(CN(C)C(C)c2ccncc2)cc1C (stereo not shown) [CBK306915],87.3616
17,COc1ccc(/C=C(\C)C(=O)NCc2ccc(OC3CCNCC3)cc2)cc1OC [CBK038914T],88.9189
18,CC1CC1C(=O)N1CCCC(c2cc3cccnc3[nH]2)C1 (stereo not shown) [CBK282156],101.944
19,NS(=O)(=O)c1ccc(CNC(=O)c2ccc(-c3ccc(OC(F)(F)F)cc3)nc2)cc1 [CBK156246],100.374
20,O=C(c1ccco1)N1CCN(CC(=O)N2c3ccccc3OCC2c2ccccc2)CC1 (stereo not shown) [CBK239722],99.8839
21,COc1ccc(CCCC(=O)NCc2sc(-c3ccccc3)nc2C)cc1OC [CBK092353],86.3449

row,SMILES,% of control remaining
1,COCCCn1c(=O)[nH]c2ncc(-c3ccc(O)cc3)nc21 [CBK064425],130.613
2,CCN(CC)CC(C)C(O)(c1ccccc1)c1ccccc1 (stereo not shown) [CBK012065C],110.081
3,O=C(NCCNC(=O)c1ccccc1I)c1ccccn1 [CBK269357],94.5642
4,Cc1ccccc1C(=O)NCCCNC(=O)c1ccccn1 [CBK269172],87.2925
5,O=C(O)CCCn1c(-c2cccc([N+](=O)[O-])c2)nc(=S)c2c1CCCC2 [CBK265657],118.965
6,COc1ccccc1-c1ccc(CNC(Cc2ccsc2)c2nccs2)cc1 (stereo not shown) [CBK286315],84.7964
7,O=C(c1cc(F)c(F)cc1F)N1CCC2(CCN(Cc3cc(=O)[nH]c(=O)[nH]3)C2)C1 (stereo not shown) [CBK132141],79.122
8,c1ccc(CN2CCN(c3cncc(-c4cccs4)n3)CC2)nc1 [CBK065734],74.1927
9,Cc1ccc(Nc2nc(N)nc(CN3CCCC3)n2)cc1 [CBK270163],83.9074
10,COc1ccc(-c2ncc(OCc3cccs3)nc2N)c(OC)c1 [CBK145088],116.985
11,CC(C)c1ccc(S(=O)(=O)Nc2ccon2)cc1 [CBK044584],110.683
12,COc1ccccc1-c1nccnc1OCCc1c[nH]c2ccccc12 [CBK106807],56.2944
13,CCN(CC)C(=O)C1CCCN(C(=O)NCC(c2ccccc2)c2ccccc2)C1 (stereo not shown) [CBK156145],33.6963
14,O=C(Nc1ccccc1C(=O)O)c1cccc(S(=O)(=O)NCc2ccccc2)c1 [CBK261258],63.9011
15,O=C(NNc1ccccc1)c1c(O)c2ccccc2oc1=O [CBK260878],109.944
16,OC(CNCc1cccs1)COc1cccc2c1CCCC2 (stereo not shown) [CBK002239],90.7929
17,O=C(N/N=C/c1ccccc1)c1ccccn1 [CBK261640],104.82
18,OC1(c2ccc(F)cc2)COC2(CCNCC2)C1 (stereo not shown) [CBK284214],73.909
19,O=C(O)c1ccc(COc2ccc3ccccc3c2/C=C2/NC(=O)N(c3ccccc3)C2=O)cc1 [CBK265124],97.4428
